The other results are listed elsewhere or left out.
Experiments:
Assay in all cases: glycan array binding signal (z-score within array); higher = stronger binding
Conditions in all cases: glycan notation: IUPAC condensed, linker removed
[1] = biological target: Gal(b1-3)[Fuc(a1-4)]GlcNAc(b1-3)Gal(b1-4)[Fuc(a1-3)]GlcNAc
Method in brief: (§1)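 Arrays were curated from the Consortium for Functional Glycomics database, 3228 in total, and kept only where the protein sequence was available. Binding is expressed as a within-array Z-score. This score was averaged across arrays of the same protein sequence at different concentrations or buffers and across linkers, and negative values can be read as non-binding.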

[2] = biological target: Gal(b1-3)[GlcNAc(b1-6)]GalNAc
Method in brief: as §1

[3] = biological target: Gal(b1-3)[Neu5Ac(a2-6)]GalNAc
Method in brief: as §1

[4] = biological target: Gal(b1-3)[Neu5Ac(a2-6)]GlcNAc(b1-6)Gal(b1-4)Glc
Method in brief: as §1

[5] = biological target: Gal(b1-3)[Neu5Ac(b2-6)]GalNAc
Method in brief: as §1

[6] = biological target: Gal(b1-4)GalNAc(a1-3)[Fuc(a1-2)]Gal(b1-4)GlcNAc
Method in brief: as §1

[7] = biological target: Gal(b1-4)GalNAc(b1-3)[Fuc(a1-2)]Gal(b1-4)GlcNAc
Method in brief: as §1

Gal(b1-4)Glc = biological target: Gal(b1-4)Glc
Method in brief: as §1

Gal(b1-4)Glc6S = biological target: Gal(b1-4)Glc6S
Method in brief: as §1

Gal(b1-4)GlcNAc = biological target: Gal(b1-4)GlcNAc
Method in brief: as §1

[8] = biological target: Gal(b1-4)GlcNAc(b1-2)Man(a1-3)[Gal(b1-4)GlcNAc(b1-2)Man(a1-6)]Man(b1-4)GlcNAc(b1-4)GlcNAc
Method in brief: as §1

[9] = biological target: Gal(b1-4)GlcNAc(b1-3)Gal(b1-4)Glc
Method in brief: as §1

[10] = biological target: Gal(b1-4)GlcNAc(b1-3)Gal(b1-4)GlcNAc
Method in brief: as §1

[11] = biological target: Gal(b1-4)GlcNAc(b1-3)Gal(b1-4)GlcNAc(b1-3)Gal(b1-4)GlcNAc
Method in brief: as §1

[12] = biological target: Gal(b1-4)GlcNAc(b1-3)Gal(b1-4)[Fuc(a1-3)]GlcNAc(b1-3)Gal(b1-4)[Fuc(a1-3)]GlcNAc
Method in brief: as §1

[13] = biological target: Gal(b1-4)GlcNAc(b1-3)GalNAc
Method in brief: as §1

[14] = biological target: Gal(b1-4)GlcNAc(b1-3)[Gal(b1-4)GlcNAc(b1-6)]GalNAc
Method in brief: as §1

[15] = biological target: Gal(b1-4)GlcNAc(b1-6)Gal(b1-4)GlcNAc(b1-6)GalNAc
Method in brief: as §1

[16] = biological target: Gal(b1-4)GlcNAc(b1-6)GalNAc
Method in brief: as §1

[17] = biological target: Gal(b1-4)GlcNAc(b1-6)[Gal(b1-3)]GalNAc
Method in brief: as §1

Gal3S(b1-3)GalNAc = biological target: Gal3S(b1-3)GalNAc
Method in brief: as §1

Gal3S(b1-3)GlcNAc = biological target: Gal3S(b1-3)GlcNAc
Method in brief: as §1

[18] = biological target: Gal3S(b1-3)[Fuc(a1-4)]GlcNAc
Method in brief: as §1

Gal3S(b1-4)Glc = biological target: Gal3S(b1-4)Glc
Method in brief: as §1

Gal3S(b1-4)Glc6S = biological target: Gal3S(b1-4)Glc6S
Method in brief: as §1

Gal3S(b1-4)GlcNAc = biological target: Gal3S(b1-4)GlcNAc
Method in brief: as §1

Gal3S(b1-4)GlcNAc6S = biological target: Gal3S(b1-4)GlcNAc6S
Method in brief: as §1

Gal3S6S(b1-4)GlcNAc = biological target: Gal3S6S(b1-4)GlcNAc
Method in brief: as §1

Gal3S6S(b1-4)GlcNAc6S = biological target: Gal3S6S(b1-4)GlcNAc6S
Method in brief: as §1

Gal4S(b1-4)GlcNAc = biological target: Gal4S(b1-4)GlcNAc
Method in brief: as §1

Gal4S6S(b1-4)GlcNAc = biological target: Gal4S6S(b1-4)GlcNAc
Method in brief: as §1

Gal6S(b1-4)Glc = biological target: Gal6S(b1-4)Glc
Method in brief: as §1

Gal6S(b1-4)Glc6S = biological target: Gal6S(b1-4)Glc6S
Method in brief: as §1

Gal6S(b1-4)GlcNAc = biological target: Gal6S(b1-4)GlcNAc
Method in brief: as §1

GalNAc(a1-3)Gal = biological target: GalNAc(a1-3)Gal
Method in brief: as §1

GalNAc(a1-3)GalNAc = biological target: GalNAc(a1-3)GalNAc
Method in brief: as §1

[19] = biological target: GalNAc(b1-3)Gal(a1-4)Gal(b1-4)GlcNAc
Method in brief: as §1

GalNAc(b1-3)GalNAc = biological target: GalNAc(b1-3)GalNAc
Method in brief: as §1

GalNAc(b1-4)GlcNAc = biological target: GalNAc(b1-4)GlcNAc
Method in brief: as §1

Glc(a1-4)Glc = biological target: Glc(a1-4)Glc
Method in brief: as §1

Glc(a1-6)Glc(a1-6)Glc = biological target: Glc(a1-6)Glc(a1-6)Glc
Method in brief: as §1

Glc(b1-4)Glc = biological target: Glc(b1-4)Glc
Method in brief: as §1

Glc(b1-6)Glc = biological target: Glc(b1-6)Glc
Method in brief: as §1

GlcA(b1-3)Gal = biological target: GlcA(b1-3)Gal
Method in brief: as §1

GlcA(b1-6)Gal = biological target: GlcA(b1-6)Gal
Method in brief: as §1

[20] = biological target: GlcNAc(a1-3)Gal(b1-4)GlcNAc
Method in brief: as §1

[21] = biological target: GlcNAc(a1-6)Gal(b1-4)GlcNAc
Method in brief: as §1

[22] = biological target: GlcNAc(b1-2)Gal(b1-3)GalNAc
Method in brief: as §1

[23] = biological target: GlcNAc(b1-2)Man(a1-3)[GlcNAc(b1-2)Man(a1-6)]Man(b1-4)GlcNAc(b1-4)GlcNAc
Method in brief: as §1

GlcNAc(b1-3)Gal = biological target: GlcNAc(b1-3)Gal
Method in brief: as §1

[24] = biological target: GlcNAc(b1-3)Gal(b1-3)GalNAc
Method in brief: as §1

GlcNAc(b1-3)Gal(b1-4)Glc = biological target: GlcNAc(b1-3)Gal(b1-4)Glc
Method in brief: as §1

[25] = biological target: GlcNAc(b1-3)Gal(b1-4)GlcNAc
Method in brief: as §1

[26] = biological target: GlcNAc(b1-3)Gal(b1-4)GlcNAc(b1-3)Gal(b1-4)GlcNAc
Method in brief: as §1

GlcNAc(b1-3)GalNAc = biological target: GlcNAc(b1-3)GalNAc
Method in brief: as §1

[27] = biological target: GlcNAc(b1-3)[GlcNAc(b1-6)]Gal(b1-4)GlcNAc
Method in brief: as §1

[28] = biological target: GlcNAc(b1-3)[GlcNAc(b1-6)]GalNAc
Method in brief: as §1

[29] = biological target: GlcNAc(b1-3)[GlcNAc(b1-6)]GlcNAc(b1-4)GlcNAc
Method in brief: as §1

[30] = biological target: GlcNAc(b1-4)Gal(b1-4)GlcNAc
Method in brief: as §1

[31] = biological target: GlcNAc(b1-4)GlcNAc(b1-4)GlcNAc
Method in brief: as §1

B1: SIGNR8 (Mus musculus) (protein)
chain: MAGEPEFHQSKNHEEEVTSGEQGFAEHDPEGLICSSKSLQGHLTQVPWLLLLLISLGLFLLMLATLVQVSRIRAYSQGQTQDQQGSSSLDKVAVPREQTHSGLEQIQQIQQQLTQFNASLAGLCRPCPWDWELFQGSCYLFSRTLGSWETSASSCEDLGAHLVIVNSVSEQRFMKYWNVRKNQRSWIGLSDHIHEGSWQWVDGSALKFSFWKEGEPNNDGDEDCVELFMDDWNDNKCTEQNFWVCEQPSAPCPHH
Q: For B1, which “glycan array binding signal (z-score)” value [1] is on record?
A: -0.386

Q: And the “glycan array binding signal (z-score)” value [2]?
A: -0.385

Q: What about the “glycan array binding signal (z-score)” value [3] of the same binder?
A: -0.39

Q: What about the “glycan array binding signal (z-score)” value [4] of the same binder?
A: -0.396

Q: And the “glycan array binding signal (z-score)” value [5]?
A: -0.394

Q: What about the “glycan array binding signal (z-score)” value [6] of the same binder?
A: -0.405

Q: And the “glycan array binding signal (z-score)” value [7]?
A: -0.404

Q: What about the “glycan array binding signal (z-score)” value (Gal(b1-4)Glc) of the same binder?
A: 2.38

Q: And the “glycan array binding signal (z-score)” value (Gal(b1-4)Glc6S)?
A: 0.338

Q: What about the “glycan array binding signal (z-score)” value (Gal(b1-4)GlcNAc) of the same binder?
A: 1.07

Q: What about the “glycan array binding signal (z-score)” value [8] of the same binder?
A: 2.8

Q: And the “glycan array binding signal (z-score)” value [9]?
A: 2.76

Q: And the “glycan array binding signal (z-score)” value [10]?
A: 2.1

Q: What about the “glycan array binding signal (z-score)” value [11] of the same binder?
A: 1.7

Q: What about the “glycan array binding signal (z-score)” value [12] of the same binder?
A: 1.68

Q: And the “glycan array binding signal (z-score)” value [13]?
A: 2.89

Q: And the “glycan array binding signal (z-score)” value [14]?
A: 2.68

Q: And the “glycan array binding signal (z-score)” value [15]?
A: 2.17

Q: What about the “glycan array binding signal (z-score)” value [16] of the same binder?
A: 1.28

Q: And the “glycan array binding signal (z-score)” value [17]?
A: 2.18

Q: What about the “glycan array binding signal (z-score)” value (Gal3S(b1-3)GalNAc) of the same binder?
A: -0.358

Q: And the “glycan array binding signal (z-score)” value (Gal3S(b1-3)GlcNAc)?
A: -0.363

Q: And the “glycan array binding signal (z-score)” value [18]?
A: -0.369

Q: And the “glycan array binding signal (z-score)” value (Gal3S(b1-4)Glc)?
A: -0.374

Q: What about the “glycan array binding signal (z-score)” value (Gal3S(b1-4)Glc6S) of the same binder?
A: -0.356

Q: And the “glycan array binding signal (z-score)” value (Gal3S(b1-4)GlcNAc)?
A: -0.356

Q: And the “glycan array binding signal (z-score)” value (Gal3S(b1-4)GlcNAc6S)?
A: -0.357

Q: What about the “glycan array binding signal (z-score)” value (Gal3S6S(b1-4)GlcNAc) of the same binder?
A: -0.338

Q: What about the “glycan array binding signal (z-score)” value (Gal3S6S(b1-4)GlcNAc6S) of the same binder?
A: -0.336

Q: What about the “glycan array binding signal (z-score)” value (Gal4S(b1-4)GlcNAc) of the same binder?
A: -0.347

Q: And the “glycan array binding signal (z-score)” value (Gal4S6S(b1-4)GlcNAc)?
A: -0.359

Q: And the “glycan array binding signal (z-score)” value (Gal6S(b1-4)Glc)?
A: -0.369

Q: And the “glycan array binding signal (z-score)” value (Gal6S(b1-4)Glc6S)?
A: -0.364

Q: And the “glycan array binding signal (z-score)” value (Gal6S(b1-4)GlcNAc)?
A: -0.353

Q: And the “glycan array binding signal (z-score)” value (GalNAc(a1-3)Gal)?
A: -0.329

Q: What about the “glycan array binding signal (z-score)” value (GalNAc(a1-3)GalNAc) of the same binder?
A: -0.356

Q: And the “glycan array binding signal (z-score)” value [19]?
A: -0.384

Q: And the “glycan array binding signal (z-score)” value (GalNAc(b1-3)GalNAc)?
A: -0.382

Q: What about the “glycan array binding signal (z-score)” value (GalNAc(b1-4)GlcNAc) of the same binder?
A: -0.382

Q: And the “glycan array binding signal (z-score)” value (Glc(a1-4)Glc)?
A: -0.396

Q: And the “glycan array binding signal (z-score)” value (Glc(a1-6)Glc(a1-6)Glc)?
A: -0.378

Q: And the “glycan array binding signal (z-score)” value (Glc(b1-4)Glc)?
A: -0.396

Q: And the “glycan array binding signal (z-score)” value (Glc(b1-6)Glc)?
A: -0.385

Q: What about the “glycan array binding signal (z-score)” value (GlcA(b1-3)Gal) of the same binder?
A: -0.366

Q: What about the “glycan array binding signal (z-score)” value (GlcA(b1-6)Gal) of the same binder?
A: -0.399

Q: And the “glycan array binding signal (z-score)” value [20]?
A: -0.395

Q: What about the “glycan array binding signal (z-score)” value [21] of the same binder?
A: -0.379

Q: What about the “glycan array binding signal (z-score)” value [22] of the same binder?
A: -0.383

Q: And the “glycan array binding signal (z-score)” value [23]?
A: -0.385

Q: And the “glycan array binding signal (z-score)” value (GlcNAc(b1-3)Gal)?
A: -0.351

Q: And the “glycan array binding signal (z-score)” value [24]?
A: -0.385

Q: And the “glycan array binding signal (z-score)” value (GlcNAc(b1-3)Gal(b1-4)Glc)?
A: -0.386

Q: And the “glycan array binding signal (z-score)” value [25]?
A: -0.398

Q: What about the “glycan array binding signal (z-score)” value [26] of the same binder?
A: -0.4

Q: And the “glycan array binding signal (z-score)” value (GlcNAc(b1-3)GalNAc)?
A: -0.39

Q: And the “glycan array binding signal (z-score)” value [27]?
A: -0.39

Q: And the “glycan array binding signal (z-score)” value [28]?
A: -0.393

Q: What about the “glycan array binding signal (z-score)” value [29] of the same binder?
A: -0.373

Q: And the “glycan array binding signal (z-score)” value [30]?
A: -0.387

Q: What about the “glycan array binding signal (z-score)” value [31] of the same binder?
A: -0.402

From the supplement of paper PMC8728848
